For the data set, the target named is Escherichia coli (laboratory strain). Description: barcode share on antibiotic plates over drug-free plates; higher = less susceptible. As for the experimental part: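 A pool of E. coli strains, each edited to carry one amino-acid change in an essential protein, was grown for 48 h on minimal glucose agar with or without antibiotic; strain barcodes were sequenced; mean of two replicates.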

Where [1] appears, read: antibiotic: carbenicillin, 2× MIC (3.1 µg/mL).
The mark [2] stands for this setting: antibiotic: gentamicin, 2× MIC (MIC 0.45 µg/mL).

Residue numbers refer to the chain shown, from its start. Numbers in names are those of the source. ± gives the standard deviation of the averaged measurements. Laboratory Escherichia coli strains with one amino-acid change in an essential protein, pooled on minimal glucose agar with carbenicillin or gentamicin at twice the control MIC (plus kanamycin and chloramphenicol for the plasmids), 48 h. Fold change of barcode share against drug-free plates; higher = less susceptible. Active = above 20 in both replicates (the paper's putatively resistant). '<' = one read or none on drug, '>' = one read or none on a drug-free plate. Shares are relative, so most strains fall below 1 when a few take over. Listed are strains with at least 15 reads on both drug-free plates, and hits; most hits rest on fewer reference reads. Replicate rank correlation about 0.5. Edits are read from barcodes.

B1: hemD F57A (protein)
chain: MSILVTRPSPAGEELVSRLRTLGQVAWHFPLIEFSPGQQLPQLADQLAALGESDLLAALSQHAVAFAQSQLHQQDRKWPRLPDYFAIGRTTALALHTVSGQKILYPQDREISEVLLQLPELQNIAGKRALILRGNGGRELIGDTLTARGAEVTFCECYQRCAIHYDGAEEAMRWQAREVTMVVVTSGEMLQQLWSLIPQWYREHWLLHCRLLVVSERLAKLARELGWQDIKVADNADNDALLRALQ
For the protein B1, the “fold change of barcode share” value reads like this: under setting [1], 0.131 ± 0.012; under setting [2], less than 0.0106.

B2: hemD V182Q (protein)
chain: B1 chain with A57F, V182Q
Turning to B2, the “fold change of barcode share” value was 0.414 ± 0.076 under setting [1] and 0.0312 ± 0.007 under setting [2].

B3: hemD V182A (protein)
chain: B1 chain with A57F, V182A
Take B3: the “fold change of barcode share” value by setting is: under setting [1], 0.498 ± 0.1; under setting [2], 0.0161 ± 0.0063.

B4: hemD V182W (protein)
chain: B1 chain with A57F, V182W
Regarding B4, the “fold change of barcode share” value reads like this: under setting [1], 0.5 ± 0.0083; under setting [2], 0.00295 ± 0.00047.

B5: hemC V196W (protein)
chain: MLDNVLRIATRQSPLALWQAHYVKDKLMASHPGLVVELVPMVTRGDVILDTPLAKVGGKGLFVKELEVALLENRADIAVHSMKDVPVEFPQGLGLVTICEREDPRDAFVSNNYDSLDALPAGSIVGTSSLRRQCQLAERRPDLIIRSLRGNVGTRLSKLDNGEYDAIILAVAGLKRLGLESRIRAALPPEISLPAWGQGAVGIECRLDDSRTRELLAALNHHETALRVTAERAMNTRLEGGCQVPIGSYAELIDGEIWLRALVGAPDGSQIIRGERRGAPQDAEQMGISLAEELLNNGAREILAEVYNGDAPA
B5: the “fold change of barcode share” value is 0.338 ± 0.015 under setting [1] and less than 0.00341 under setting [2].

B6: hemC V196P (protein)
chain: B5 chain with W196P
For B6, the “fold change of barcode share” value runs as follows: under setting [1], 0.224 ± 0.063; under setting [2], less than 0.00256.

B7: hemC V196Q (protein)
chain: B5 chain with W196Q
Consider B7, for which the “fold change of barcode share” value came out at 0.366 ± 0.0074 under setting [1] and 0.00386 ± 0.0031 under setting [2].

B8: argG L45A (protein)
chain: MTTILKHLPVGQRIGIAFSGGLDTSAALLWMRQKGAVPYAYTANAGQPDEEDYDAIPRRAMEYGAENARLIDCRKQLVAEGIAAIQCGAFHNTTGGLTYFNTTPLGRAVTGTMLVAAMKEDGVNIWGDGSTYKGNDIERFYRYGLLTNAELQIYKPWLDTDFIDELGGRHEMSEFMIACGFDYKMSVEKAYSTDSNMLGATHEAKDLEYLNSSVKIVNPIMGVKFWDESVKIPAEEVTVRFEQGHPVALNGKTFSDDVEMMLEANRIGGRHGLGMSDQIENRIIEAKSRGIYEAPGMALLHIAYERLLTGIHNEDTIEQYHAHGRQLGRLLYQGRWFDSQALMLRDSLQRWVASQITGEVTLELRRGNDYSILNTVSENLTYKPERLTMEKGDSVFSPDDRIGQLTMRNLDITDTREKLFGYAKTGLLSSSAASGVPQVENLENKGQ
On to B8, for which the “fold change of barcode share” value under setting [1] is 0.422 ± 0.097 and the “fold change of barcode share” value under setting [2] was less than 0.00718.

The record behind these values is the supplement of paper PMC11876631.
